From PubChem BioAssay AID504832 (National Center for Advancing Translational Sciences (NCATS), 2011)
The whole screen tested about 310,000 compounds, of which about 18,000 (5.8%) were called active. Inconclusive results, whose numbers are uncertain, are shown with a selection of clear calls. The call rests on the fitted dose curve; in most records, active means well fitted inhibition curve with a large enough effect; inconclusive means small, poorly fitted or top-dose-only effect, or another doubt; inactive means no such curve, though single readings can be large or run the other way. No potency is given beside an inconclusive call; the fits are too rough.

Assay: Primary qHTS for delayed death inhibitors of the malarial parasite plastid, 48 hour incubation
Conditions: P. falciparum luciferase growth in erythrocytes; series mostly up to 28.7 µM
How it was run: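 Luminescence readout; reporter = integrated firefly luciferase in P. falciparum. RBC culture at 2% hematocrit, 0.1% parasitemia final, 37 C/5% CO2; decreased signal taken as growth inhibition.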
Potency means the concentration at half of the fitted maximal effect; tags describe the fitted curve by direction and shape.

**Q.** With `O=[N+]([O-])c1cc(-c2n(-c3ccccn3)c3ccccc3[n+]2-c2ccccn2)ccc1Cl` as the compound, how does the Potency read?
**A.** inconclusive [inhibitor, partial curve]

**Q.** With `CSc1ccc(CCNC(=O)C2CCCN(S(=O)(=O)N3CCOCC3)C2)cc1` (stereo not drawn) as the compound, how does the Potency read?
**A.** inconclusive [inhibitor, partial curve, poor fit]

**Q.** For `O=C(c1ccco1)N1CCN(C(c2ccccc2Cl)c2nnnn2Cc2cccs2)CC1` (stereo not drawn), which Potency is on record?
**A.** inconclusive [inhibitor, partial curve]

**Q.** With `COc1cc2c(cc1OC)-c1c3c(cc4c1[C@@H](C2)N(C)CC4)OCO3` as the compound, how does the Potency read?
**A.** inconclusive [inhibitor, single point]

**Q.** Which Potency does the source give for `Cc1ccnc(NC(=O)C2(c3cccs3)CCOCC2)c1` here?
**A.** inactive

**Q.** With `O=C1CC(C2CCCO2)C(=O)N1c1ccc(Cl)c(Cl)c1` (stereo not drawn) as the compound, how does the Potency read?
**A.** inconclusive [inhibitor, partial curve, poor fit]

**Q.** Which Potency does the source give for `O=C(Nc1ccccc1N1CCN(c2ccc(F)cc2)CC1)C1CCCCC1` here?
**A.** inconclusive [inhibitor, partial curve, poor fit]

**Q.** For `CN=C1NN=C(c2cc(C)n(-c3c(C)n(C)n(-c4ccccc4)c3=O)c2C)CS1`, which Potency is on record?
**A.** inconclusive [inhibitor, single point]

**Q.** For `COc1ccc(C2=Nn3c(nnc3-c3cccnc3)SC2)cc1`, which Potency is on record?
**A.** inconclusive [inhibitor, single point]

**Q.** With `CC(C)C(NS(=O)(=O)c1ccc2c(c1)C(C)(C)C(=O)N2C)C(=O)NCc1ccccc1Cl` (stereo not drawn) as the compound, how does the Potency read?
**A.** inconclusive [inhibitor, single point]

**Q.** With `CCn1c(C)nc2cc(C(=O)NNC(=S)Nc3ccccc3Cl)ccc21` as the compound, how does the Potency read?
**A.** inactive

**Q.** For `Cc1ccc(N(C(=O)c2snc(C(N)=O)c2N)C(C(=O)NC2CCCC2)c2ccncc2)cc1` (stereo not drawn), which Potency is on record?
**A.** inconclusive [inhibitor, single point]

**Q.** Which Potency does the source give for `Cc1cccc(N2C(=O)CC(Cn3nc(C)cc3C)C2=O)c1` (stereo not drawn) here?
**A.** inactive

**Q.** With `COc1ccc(-c2c(C)oc3c(CN4CCCC(C)C4)c(O)ccc3c2=O)cc1OC` (stereo not drawn) as the compound, how does the Potency read?
**A.** inconclusive [inhibitor, partial curve, poor fit]

**Q.** Which Potency does the source give for `Cc1nc(Oc2ccccc2)c2ccccc2n1` here?
**A.** inactive

**Q.** Which Potency does the source give for `COc1cc(OC)c(CNC2CCCCCC2)cc1Br` here?
**A.** inconclusive [inhibitor, single point]

**Q.** For `CC(O)CSc1nc2c(c(=O)[nH]c(=O)n2C)n1Cc1ccccc1Cl` (stereo not drawn), which Potency is on record?
**A.** inactive

**Q.** Which Potency does the source give for `COc1ccc(/C=C(/C#N)C(=O)Nc2cccc(C)c2C)cc1C(=O)O` here?
**A.** inactive

**Q.** Which Potency does the source give for `N/C(=N\OC(=O)Cc1ccc(-c2ccccc2)cc1)c1ccccn1` here?
**A.** inactive

**Q.** Which Potency does the source give for `O=C(CNc1cccc(S(=O)(=O)N2CCCC2)c1)Nc1cccc(Br)c1` here?
**A.** active: 5.22 µM

**Q.** For `CCC(=O)Nc1ccc(N2CCC(C)CC2)cc1`, which Potency is on record?
**A.** inactive

**Q.** For `COc1ccc(C(=O)NCc2ccc3c(c2)OCO3)cc1S(=O)(=O)N(C)Cc1ccccc1`, which Potency is on record?
**A.** inactive

**Q.** With `CC(C)(C)NC(=O)CSc1nc(N)c(-c2ccccc2)c(=O)[nH]1` as the compound, how does the Potency read?
**A.** inactive

**Q.** Which Potency does the source give for `Clc1ccc(-c2csc(Nc3ccccc3)[n+]2Cc2ccco2)c(Cl)c1` here?
**A.** active: 11.7 µM

**Q.** With `Cc1occc1-c1nnc(SCC(=O)N2CCCCC2C)o1` (stereo not drawn) as the compound, how does the Potency read?
**A.** inactive

**Q.** With `COc1ccc(CN2C(=O)NC(=O)/C(=C\c3cc(OC)c(OC)c(OC)c3)C2=O)cc1` as the compound, how does the Potency read?
**A.** inactive

**Q.** With `CN(Cc1cnn(Cc2ccccc2)c1)C(=O)c1cccc(S(=O)(=O)N2CCOCC2)c1` as the compound, how does the Potency read?
**A.** inactive

**Q.** Which Potency does the source give for `NC(=S)NNc1cccc2cccnc12` here?
**A.** active: 7.38 µM

**Q.** For `CCOc1ccc2nc(NC(=O)CSc3nc(SC)ns3)sc2c1`, which Potency is on record?
**A.** inconclusive [inhibitor, single point]

**Q.** With `CC(c1ccccc1)N1C(=O)c2ccc(C(=O)Nc3ccccc3C(=O)O)cc2C1=O` (stereo not drawn) as the compound, how does the Potency read?
**A.** inactive

**Q.** Which Potency does the source give for `CC(=O)N1CCc2cc(Br)cc(S(=O)(=O)NCC3CCCO3)c21` (stereo not drawn) here?
**A.** inactive

**Q.** For `COC(=O)CCCC1=CC2=CC(=O)C(C)(OC(=O)c3cccs3)C(=O)C2=CN1c1cccc(C#N)c1` (stereo not drawn), which Potency is on record?
**A.** inconclusive [inhibitor, single point]

**Q.** Which Potency does the source give for `COc1cccc([C@@H]2CC=C(C(=O)O)[C@H](c3ccc(F)cc3)N2S(=O)(=O)c2ccc(C)cc2)c1` here?
**A.** inconclusive [inhibitor, partial curve, poor fit]

**Q.** With `COc1ccc(S(=O)(=O)N2CCOCC2)cc1C(=O)N(C)CCOc1ccc(Cl)cc1` as the compound, how does the Potency read?
**A.** inconclusive [inhibitor, single point]

**Q.** With `CCCOc1ccc2ccccc2c1/C=N/n1cnnc1` as the compound, how does the Potency read?
**A.** inactive

**Q.** With `CCOC(=O)CC(NC(=O)CCc1c(C)nc2ncnn2c1C)c1ccc(OC(C)C)cc1` (stereo not drawn) as the compound, how does the Potency read?
**A.** inconclusive [inhibitor, partial curve, poor fit]

**Q.** Which Potency does the source give for `Cc1cc(N2CCN(S(=O)(=O)c3ccc4c(c3)OCCO4)CC2)n2ncnc2n1` here?
**A.** inactive

**Q.** With `CCCCCn1c(N2CCN(Cc3ccccc3)CC2)nc2c1c(=O)[nH]c(=O)n2C` as the compound, how does the Potency read?
**A.** active: 11.7 µM

**Q.** Which Potency does the source give for `Cc1ccc(CSc2ccc(S(=O)(=O)N3CCCC3)cn2)cc1` here?
**A.** inconclusive [inhibitor, single point]

**Q.** Which Potency does the source give for `CCOC(=O)C1=C(C)N=C2c3ccccc3C(=O)C2C1c1ccc(Cl)cc1` (stereo not drawn) here?
**A.** active: 10.4 µM

**Q.** With `Cc1ccccc1-c1nnc(SCc2ccccc2F)o1` as the compound, how does the Potency read?
**A.** inactive

**Q.** For `CCN(CC)CCn1c(NS(=O)(=O)c2ccc(C)cc2)nc2ccccc21`, which Potency is on record?
**A.** inactive

**Q.** Which Potency does the source give for `O=C(NCCCN1CCc2ccccc2C1)Nc1ccc(Cl)cc1` here?
**A.** inconclusive [inhibitor, partial curve, poor fit]

**Q.** For `O=C(COC(=O)CSc1ccc([N+](=O)[O-])cc1)NCc1ccco1`, which Potency is on record?
**A.** inactive

**Q.** For `Cc1cnc(C(=O)Nc2ccc(S(=O)(=O)NCC(C)C)cc2)cn1`, which Potency is on record?
**A.** inconclusive [inhibitor, partial curve, poor fit]

**Q.** Which Potency does the source give for `Cc1cccc(NC(=O)c2ccc(-n3ccnc3)nc2)c1` here?
**A.** inconclusive [inhibitor, single point]

**Q.** With `CCOC(=O)c1cccc(NC(=O)c2cncc(Br)c2)c1` as the compound, how does the Potency read?
**A.** inconclusive [inhibitor, single point]

**Q.** For `CC1CCCC(C)N1C(=O)c1ccc2c(c1)S(=O)(=O)c1ccccc1C2=O` (stereo not drawn), which Potency is on record?
**A.** inconclusive [inhibitor, single point]
